Assay results: PubChem BioAssay AID488969 (Vanderbilt High Throughput Screening Facility, 2010)
Over roughly 110,000 compounds, “z-score” has its median near -0.1; the highest 2% begin near 2. Some of the results follow. Activity calls are given as the source filed them.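 The calls were made as follows: active = z-score in the third read window above 3 or below -3; inactive = the rest.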

What follows are molecules tested against Metabotropic glutamate receptor 8 (Rattus norvegicus) (UniProt P70579) (assay: rat mGluR8 modulators via GIRK flux, primary screen, cell-based, thallium flux, HTS (AID 488969)). Details: HEK293 rat mGluR8, GIRK (G protein-gated inwardly rectifying potassium channel) thallium flux, FluoZin2; at 10 µM; stronger effect = higher value; submaximal glutamate (EC20) added with thallium.
UniProt P70579, sequence (P70579 whole entry, looked up): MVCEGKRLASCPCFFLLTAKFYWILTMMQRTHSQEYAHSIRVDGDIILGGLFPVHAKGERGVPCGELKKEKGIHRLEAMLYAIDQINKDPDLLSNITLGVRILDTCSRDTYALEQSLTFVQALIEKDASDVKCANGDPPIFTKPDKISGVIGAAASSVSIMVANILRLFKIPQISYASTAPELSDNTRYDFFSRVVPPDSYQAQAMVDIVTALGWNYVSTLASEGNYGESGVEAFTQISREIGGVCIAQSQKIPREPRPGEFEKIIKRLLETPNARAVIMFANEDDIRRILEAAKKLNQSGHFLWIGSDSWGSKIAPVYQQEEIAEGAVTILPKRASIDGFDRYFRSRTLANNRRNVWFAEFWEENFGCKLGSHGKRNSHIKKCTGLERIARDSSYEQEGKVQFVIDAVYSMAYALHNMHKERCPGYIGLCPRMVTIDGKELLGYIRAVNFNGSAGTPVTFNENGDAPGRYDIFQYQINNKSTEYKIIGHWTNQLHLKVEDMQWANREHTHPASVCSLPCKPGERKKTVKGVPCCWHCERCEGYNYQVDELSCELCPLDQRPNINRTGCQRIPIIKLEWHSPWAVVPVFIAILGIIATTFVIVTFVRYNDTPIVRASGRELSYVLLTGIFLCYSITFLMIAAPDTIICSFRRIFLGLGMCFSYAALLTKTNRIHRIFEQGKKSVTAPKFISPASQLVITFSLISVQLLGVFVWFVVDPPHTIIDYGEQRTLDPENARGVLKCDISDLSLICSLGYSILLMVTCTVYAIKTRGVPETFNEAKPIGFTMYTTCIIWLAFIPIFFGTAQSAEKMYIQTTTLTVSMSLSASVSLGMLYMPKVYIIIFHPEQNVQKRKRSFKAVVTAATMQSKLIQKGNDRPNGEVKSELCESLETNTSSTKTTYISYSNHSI
`O=C(OCc1cnc(Cl)s1)c1ccccc1Cl` showed a z-score of -0.386. `CC(C)CN1C(=O)NC(NS(=O)(=O)c2ccc(N)cc2)(C(F)(F)F)C1=O` (stereo unspecified) gave a z-score of 0.0251. Molecule `COc1ccc([N+](=O)[O-])cc1C1NN=C(c2ccccc2O)S1` (stereo unspecified) has a z-score of 0.305. For `CCCCCCc1cc2cc(C(=O)NCc3ccccc3)c(=N)oc2cc1O`, the z-score was 0.891. In the case of `O=C1c2ccccc2C(Nc2ccc(F)c(Cl)c2)N1c1ccccn1` (stereo unspecified), the z-score is reported as 1.06. For `Cc1cc(C)c2c(c1)/C(=N/NS(=O)(=O)c1ccc(Br)cc1)CCC2`, the z-score was -0.555. `Cc1c(Nc2nc3ccccc3nc2NS(=O)(=O)c2cccs2)c(=O)n(-c2ccccc2)n1C` was tested, and the z-score was 0.66. With `Cc1ccc(C)c(NC(=O)C2(C)CC3c4ccccc4C2c2ccccc23)c1` (stereo unspecified) the z-score was -0.0928. For `COc1ccc(NC(=O)CSc2nccc(C)n2)cc1`, the z-score was 0.549. In the case of `Cc1ccc(-c2nnc(SCC#CCOC(=O)c3ccco3)o2)cc1`, the z-score is reported as -0.529. `COc1ccccc1/C=N/NC(=O)C(=O)N1CCN(c2ccccc2OC)CC1` showed a z-score of -0.405. In the case of `COc1ccc(OCc2nc(N)nc(Nc3ccccc3)n2)cc1`, the z-score is reported as active: 5.72. For `COc1ccc(S(=O)(=O)Cc2ccc(C(=O)NC3CC3)o2)cc1`, the z-score was -0.451. With `CC(C)CNC(=O)CCc1c[nH]c2ccccc12` the z-score was -0.463. In the case of `CO/N=C/NC(=O)c1c(OC)ccnc1Oc1ccc(Cl)cc1`, the z-score is reported as -0.0797. Molecule `CC(=O)C1=C(O)C(=O)N(CCN2CCOCC2)C1c1ccc(N(C)C)cc1` (stereo unspecified) has a z-score of 0.474. With `Cc1cc(C)cc(C(=O)N2CCCCCC2)c1` the z-score was 0.076. With `O=C(CCCN1C(=O)CCC1=O)Nc1ccc2c(c1)OCO2` the z-score was 0.325. For `Cc1ccc(NC(=O)CSc2nc3ccccc3c3nc4ccccc4n23)cc1`, the z-score was -0.225. In the case of `Cc1oncc1-c1cn2ccccc2n1`, the z-score is reported as 0.00287. For `COc1ccc(Nc2ccccc2)c(C)c1`, the z-score was -0.328. With `CCc1ccc(C(=O)COC(=O)C(Cc2ccccc2)NC(=O)C2CCC(C)CC2)cc1` (stereo unspecified) the z-score was 0.18. Molecule `CN1CC(c2ccccc2)C(c2ccc(Cl)cc2)=N1` (stereo unspecified) has a z-score of -0.0948. `N#C/C(=C\c1cn(-c2ccccc2)nc1-c1ccccc1)S(=O)(=O)c1ccccc1` gave a z-score of -0.452. `c1ccc(-c2nnc(OCCN3CCOCC3)c3ccccc23)cc1` showed a z-score of 0.0453. In the case of `O=C(Nc1ncn[nH]1)c1ccc([N+](=O)[O-])cc1[N+](=O)[O-]`, the z-score is reported as -0.0996. `CC(C)CCNC(=O)NC(=O)COC(=O)c1cc(S(=O)(=O)N2CCOCC2)ccc1N1CCCCC1` showed a z-score of -0.197. For `CN(C(=O)c1ccccn1)c1nnc(-c2ccncc2)s1`, the z-score was -0.931. In the case of `CC(=O)c1sc(N/N=C\c2ccc(C)cc2)nc1C`, the z-score is reported as -0.323. `CCn1c(SCCOc2ccc(Cl)cc2)nnc1-c1cccs1` gave a z-score of 1.3. `CCOc1cc(C2C(C(=O)c3ccc(C)cc3)=C(C(=O)OC)Nc3nnnn32)ccc1O` (stereo unspecified) gave a z-score of -0.142. `CCn1c(SCC(=O)N2CCCc3ccccc32)nnc1-c1c[nH]c2ccccc12` showed a z-score of -0.682. Molecule `Cc1ccc(CN2CCN(Cc3ccccc3C(F)(F)F)CC2)cc1` has a z-score of -0.0837. `COc1ccccc1C(=O)Nc1nnc(-c2ccco2)s1` gave a z-score of -0.104. Work on `CCn1c(CC(=O)Nc2ccc(C)cc2)nnc1SCC(=O)NCc1ccccc1` yielded a z-score of 0.00696. Work on `CCOc1ccc(C)cc1-n1nc2ccccc2n1` yielded a z-score of -0.124. For `O=C(Cc1ccccc1)NCC1CCCO1` (stereo unspecified), the z-score was 0.292. `N#CCC(=O)N/N=C1\CCCCC1C1CCCCC1` (stereo unspecified) showed a z-score of 0.419. With `O=C(C1CCCO1)N1CCN(C(=S)Nc2cccc(Cl)c2)CC1` (stereo unspecified) the z-score was -0.344. `Cc1cccc(N2CC34C=CC(O3)C(C(=O)O)C4C2=O)c1` (stereo unspecified) was tested, and the z-score was -0.588. With `O=C(O)CN(c1ccccn1)S(=O)(=O)c1ccccc1` the z-score was 0.00416. `Cc1cc(C)c2c(N)c3cccc(C)c3nc2n1` gave a z-score of 0.0736. `Cc1sc(N2C(=O)C3C4C=CC(C4)C3C2=O)c(C#N)c1C` (stereo unspecified) showed a z-score of -0.106. `Cc1ccc(S(=O)(=O)N(C)c2ccc(C(=O)O)cc2)cc1` was tested, and the z-score was -0.249. Molecule `CCOC(=O)Cn1c(C)cc(=O)c2ccccc21` has a z-score of -0.138. `CC(C)C(C(=O)NC(C)(C)C)N1C(=O)c2ccccc2C1=O` (stereo unspecified) showed a z-score of -0.131. Molecule `O=[N+]([O-])c1ccc2nc(-[n+]3c(-c4ccccc4)cc(-c4ccccc4)cc3-c3ccccc3)[nH]c2c1` has a z-score of -0.969. Work on `CCNC(=O)/C(C#N)=C/c1c(N2CCN(Cc3ccc4c(c3)OCO4)CC2)nc2c(C)cccn2c1=O` yielded a z-score of -0.699. `Cc1cc(C(=O)Nc2ccc(S(=O)(=O)Nc3onc(C)c3C)cc2)c(C)o1` gave a z-score of 0.0164. `CC(C)=CC(=O)Nc1ccc2c(c1)OCO2` was tested, and the z-score was -0.362. In the case of `C#CCSc1nnc(-c2cccc3ccccc23)o1`, the z-score is reported as active: -5.11. Work on `O=C(CSc1ccc(F)cc1)N1CCC(c2nc3ccccc3s2)CC1` yielded a z-score of -0.105. With `Nc1ccc(C(=O)OCC(=O)N2CCN(C(=O)c3ccco3)CC2)cc1[N+](=O)[O-]` the z-score was -1.89. `CCCCS(=O)(=O)c1sc2nc(C)cc(C)c2c1N` was tested, and the z-score was 0.0692. In the case of `CCOc1ccc(C(CC(=O)O)NC(=O)c2ccco2)cc1OC` (stereo unspecified), the z-score is reported as 0.387. In the case of `COC(=O)N/N=C(\C)c1ccc(Br)cc1`, the z-score is reported as 0.0678. For `COc1ccc(/C=C(/NC(=O)c2ccccc2)c2nc3ccccc3[nH]2)cc1OC`, the z-score was -0.133. Molecule `Cc1ccc2nc3c(cc2c1)c(NC(=O)C1CCCO1)nn3CC(C)C` (stereo unspecified) has a z-score of -0.406. `Cc1cc2c(cc1C)N(C(=O)CSC1=NCCS1)C(C)(C)c1ssc(=S)c1-2` showed a z-score of -0.0869. `N#C/C(=C(/O)c1ccco1)c1nc2ccccc2s1` showed a z-score of -0.306. `COc1cc(/C=C(\NC(C)=O)C(=O)NC(C)(C)C)ccc1OC(C)=O` gave a z-score of -0.36. `C=CCn1c(SCC(=O)Nc2ccc(C(=O)OCC)cc2)nnc1-c1sc(N)nc1C` was tested, and the z-score was -0.275. `COc1ccccc1C(=O)Nc1ccc(C)cc1C(=O)c1ccccc1` showed a z-score of -0.242. `CCCCn1nnc(NC(=S)NC(=O)c2ccc(-c3cccc(Cl)c3Cl)o2)n1` was tested, and the z-score was active: 4.59. Molecule `Cc1cc(C(=O)OC2CCOC2=O)c2ccccc2n1` (stereo unspecified) has a z-score of 0.209. Work on `Cc1ccc(-n2ncc3c(=O)n(CC(=O)NC4CCCCC4)cnc32)cc1C` yielded a z-score of 0.456. `COc1cc(Cl)cc(C2NC(=O)NC(C)=C2C(=O)NCc2ccccc2)c1O` (stereo unspecified) was tested, and the z-score was -0.322. `C=CCNC(=O)c1cc2c(C(F)(F)F)nn(C)c2s1` gave a z-score of -0.241. `FC(F)(F)c1cccc(Oc2ccc3c(C(F)(F)F)cc(C(F)(F)F)nc3n2)c1` showed a z-score of 0.182. For `COc1ccc(-n2c(C)nc3cc(C(=O)NCCN4CCOCC4)ccc32)cc1`, the z-score was -0.0514. `CCCn1nc(C(=O)Nc2ccc3nc(C)sc3c2)c2ccccc2c1=O` showed a z-score of -0.783.
